Data on 44 sequences can be found in the supplement of paper PMC11417369.

± gives the standard deviation of the averaged measurements. Some of the results follow.

The test system of the experiment is PfAP2-G AP2 domain (GST-tagged). The experiment can be described thus: gcPBM binding intensity (ln(normalized median fluorescence intensity)); higher = stronger DNA binding. The gist of the method:
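Using an Agilent 4 × 180k array, primer-extended double-stranded 36-bp intergenic genomic probes and negative controls were exposed for 1 h to GST-fused P. falciparum DNA-binding domains expressed in E. coli. Binding was carried out in 1× PBS with 1% milk, 0.2 mg/ml BSA, 0.5% salmon testes DNA and 0.03% Triton X-100, and protein was detected with Alexa488 anti-GST antibody and a 488 nm scan. Binding intensity is the highest Masliner-normalised natural-log median intensity across replicate spots of either probe orientation.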
Take “GTAATTATATACATACGTACATACACATATGTATAT [XGTACX_site4149]”: the “gcPBM binding intensity (ln)” value worked out at 11.3 ± 0.65.

Regarding “GGATATATGAAACATATTGAAAAACCGTTTAGTACA [CACACA_negctrl_site132]”, the “gcPBM binding intensity (ln)” value turned out to be 10.5 ± 0.3. For “TAATTTTTGTAAACAGTCATGGATTCAAAAAAAAAA [CACACA_negctrl_site593]”, the “gcPBM binding intensity (ln)” value is 9.97 ± 0.13. With “TTACTATGTAAACACACATGCAATATATGTTAAGCC [TGCATGCA_site253]” the figure was 10 ± 0.18; with “TTATATGAAAATTATTGTACAATCTATAAAAAAAAT [XGTACX_site4194]”, 11 ± 0.66; with “TTTTATCATATTTATTGTACACATAATATACATATC [XGTACX_site1145]”, 11.5 ± 0.9. For the sequence “AATAAATAAATATATACACACATATATCTGTACATA [CACACA_site9034]”, the “gcPBM binding intensity (ln)” value came to 10.9 ± 0.67.

For the sequence “AGGAAAAAAAAAATGTGTACTTAAAAAAAAAAAATT [XGTACX_site1471]”, the “gcPBM binding intensity (ln)” value came to 11.6 ± 0.93. For “TGTATGTTTATTTATCGTACATATATATATATATAT [XGTACX_site7315]” the value was 11 ± 0.61; for “TTTTATATATTATATACACACATATATATATATATA [CACACA_site2999]”, 10.2 ± 0.61; for “TTTGAATCCTTATATACACACATTATATAATATTAT [CACACA_site4472]”, 10.2 ± 0.15.

In the case of “TATATATATATACATTGTACATTATTGATTATAACA [XGTACX_site1678]”, the “gcPBM binding intensity (ln)” value turned out to be 10.7 ± 0.49. With “CATTTTATAAAAAGCACACATATAGTTATATGCACA [CACACA_site3691]”, the “gcPBM binding intensity (ln)” value stood at 10.04 ± 0.071. As for “TAAATTATAATAAATACACACAAATTATAATTCTAT [CACACA_site3942]”, the “gcPBM binding intensity (ln)” value stood at 9.88 ± 0.11.

Take “ATATATAAAAAATGTGGTACATTCATTTATTATACA [XGTACX_site3495]”: the “gcPBM binding intensity (ln)” value came out at 11.2 ± 0.92. With “AAATTAGAATTAGGAACACACATATTTATATTTATA [CACACA_site7450]” the figure was 9.82 ± 0.057; with “TTTATTCTCCGACACACACACATATATTTATTTATA [CACACA_site7377]”, 10.2 ± 0.19; with “ACAAAGTAAAATAATGCATGTAGGTATACATAATTA [TGCATGCA_site607]”, 9.88 ± 0.099. For “AATATTTTATATAAATGTACATTTATGAATAATATA [XGTACX_site8477]” the value was 10.9 ± 0.54; for “GTGCTAAAAGTATATGCACACACATATATATGCACA [CACACA_site8472]”, 10.1 ± 0.16; for “ACATATTTCCAATAATGTACATACAAAATAAGAATG [XGTACX_site2659]”, 11.1 ± 0.61. For “TAAAAGTAGATATATACACACATAAATATAGATGTA [CACACA_site6457]” the value was 9.775 ± 0.035; for “TGTTCATTTATTTACTTACACACTTTATATATGTGG [CACACA_site1410]”, 10.05 ± 0.049; for “TAAAAATATATAAACAGTACATAAATTAAATAAATA [XGTACX_site6962]”, 10.6 ± 0.3. As for “AAAAATAAAAAGAATTGTACATATAAATCATATACA [XGTACX_site6860]”, the “gcPBM binding intensity (ln)” value worked out at 10.8 ± 0.54. “GACCCAATGAAAAGGTCACACATTTTTTCTTTTCGA [CACACA_site5074]”: the “gcPBM binding intensity (ln)” value turned out to be 10.3 ± 0.19. Regarding “TATTTTTTTTAGCGTACATGCAAAAAAAAAAAAAAA [TGCATGCA_site555]”, the “gcPBM binding intensity (ln)” value came to 11.4 ± 1.1.

For GTTTATTTATTTTATGTGCACATATAACAAAAAAAA, the “gcPBM binding intensity (ln)” value was determined as 10.7 ± 0.64. With “GTTAAAATTTGTCAATGTACAGAAATAATAAAAAAA [XGTACX_site1879]” the figure was 10.9 ± 0.49.

For “AAAGTTTTTACCAAGTGTACATATATATATATATAT [XGTACX_site5786]”, the “gcPBM binding intensity (ln)” value is 11.3 ± 0.85. With “TTTTTTCTTTAATACTCAATATGATAAAAGTAACAC [XGTACX_negctrl_site163]” the figure was 10.3 ± 0.34; with “AAATTATATATATTTACATGCAATATAATGAAATAA [TGCATGCA_site229]”, 9.785 ± 0.035; with “ATAAAATAAAACAGAGCACACATTTTATTTACATTC [CACACA_site696]”, 10 ± 0.057. Regarding “ATATATATATCATATTGTACATATTATTGTATAATC [XGTACX_site5020]”, the “gcPBM binding intensity (ln)” value turned out to be 11 ± 0.47.

On to “ATTTTTTTTTTTATAGTGGAACCACATTTGCCATTT [CACACA_negctrl_site1247]”, for which the “gcPBM binding intensity (ln)” value amounted to 10.4 ± 0.47. With “TATTAAATGAAACAAACACACATAGCCTTTAAATAT [CACACA_site1560]”, the “gcPBM binding intensity (ln)” value is 10 ± 0.099. As for “TTAGGACAAAAAAAAATAAAAATAAAATAAAATAAT [CACACA_negctrl_site1613]”, the “gcPBM binding intensity (ln)” value was 9.95 ± 0.21.

With “ATATAAACATGTTTGTGTACGTAATATGAAAAATAA [XGTACX_site8157]”, the “gcPBM binding intensity (ln)” value came out at 11.7 ± 1. As to “GTATGTATAATATACACACTCACAAGCATTCAAATA [CACACA_site267]”, the “gcPBM binding intensity (ln)” value came out at 9.88 ± 0.057. “TTGTTTTTAAGAAAAACACACACTCCTGTTATTTTA [CACACA_site9230]”: the “gcPBM binding intensity (ln)” value turned out to be 9.785 ± 0.049. For “AAATATTATACAAAAAAAAAAAAAAAAAAAATATAT [CACACA_negctrl_site52]” the value was 9.61 ± 0.26. On to “ATTTTGTATATATTTTGTACATATTTTGTATATATT [XGTACX_site885]”, for which the “gcPBM binding intensity (ln)” value amounted to 10.8 ± 0.42.

For the sequence “ATATAATAATTGTACACATGCACACACAAATATTAT [TGCATGCA_site204]”, the “gcPBM binding intensity (ln)” value worked out at 11.5 ± 0.95. In the case of “ATTTTTAATCATTTACAACCTAGTGATTATACAAAT [CACACA_negctrl_site1089]”, the “gcPBM binding intensity (ln)” value was 10 ± 0.21.
